# Laboratory results taken from the supplement of paper PMC8728848.
# Some of the results follow.
# Tests used:
# Test in all cases: glycan array binding signal (z-score within array); higher = stronger binding
# Settings in all cases: glycan notation: IUPAC condensed, linker removed
# [1] = biological target: Fuc(a1-2)[GalNAc(a1-3)]Gal(b1-3)GlcNAc(b1-3)GalNAc
# Outline: (§1)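 From the Consortium for Functional Glycomics database, 3228 arrays were curated, keeping only those whose protein sequence was available. Binding is given as a within-array Z-score averaged across arrays sharing a protein sequence and across linkers. Negative Z-scores can be read as non-binding.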
# [2] = biological target: Fuc(a1-2)[GalNAc(a1-3)]Gal(b1-3)GlcNAc(b1-6)GalNAc
# Outline: as §1
# [3] = biological target: Fuc(a1-2)[GalNAc(a1-3)]Gal(b1-4)Glc
# Outline: as §1
# [4] = biological target: Fuc(a1-2)[GalNAc(a1-3)]Gal(b1-4)GlcNAc
# Outline: as §1
# [5] = biological target: Fuc(a1-2)[GalNAc(a1-3)]Gal(b1-4)GlcNAc(b1-2)Man
# Outline: as §1
# [6] = biological target: Fuc(a1-2)[GalNAc(a1-3)]Gal(b1-4)GlcNAc(b1-2)Man(a1-3)[Fuc(a1-2)[GalNAc(a1-3)]Gal(b1-4)GlcNAc(b1-2)Man(a1-6)]Man(b1-4)GlcNAc(b1-4)GlcNAc
# Outline: as §1
# [7] = biological target: Fuc(a1-2)[GalNAc(a1-3)]Gal(b1-4)GlcNAc(b1-2)Man(a1-3)[Fuc(a1-2)[GalNAc(a1-3)]Gal(b1-4)GlcNAc(b1-2)Man(a1-6)]Man(b1-4)GlcNAc(b1-4)[Fuc(a1-6)]GlcNAc
# Outline: as §1
# [8] = biological target: Fuc(a1-2)[GalNAc(a1-3)]Gal(b1-4)GlcNAc(b1-3)Gal(b1-4)GlcNAc
# Outline: as §1
# [9] = biological target: Fuc(a1-2)[GalNAc(a1-3)]Gal(b1-4)GlcNAc(b1-3)Gal(b1-4)GlcNAc(b1-3)Gal(b1-4)GlcNAc
# Outline: as §1
# [10] = biological target: Fuc(a1-2)[GalNAc(a1-3)]Gal(b1-4)GlcNAc(b1-3)GalNAc
# Outline: as §1
# [11] = biological target: Fuc(a1-2)[GalNAc(a1-3)]Gal(b1-4)GlcNAc(b1-3)[Fuc(a1-2)[GalNAc(a1-3)]Gal(b1-4)GlcNAc(b1-6)]GalNAc
# Outline: as §1
# [12] = biological target: Fuc(a1-2)[GalNAc(a1-3)]Gal(b1-4)GlcNAc(b1-6)GalNAc
# Outline: as §1
# [13] = biological target: Fuc(a1-2)[GalNAc(a1-3)]Gal(b1-4)[Fuc(a1-3)]GlcNAc
# Outline: as §1
# [14] = biological target: Fuc(a1-2)[GalNAc(a1-3)]Gal(b1-4)[Fuc(a1-3)]GlcNAc(b1-3)GalNAc
# Outline: as §1
# [15] = biological target: Fuc(a1-2)[GalNAc(a1-4)]Gal(b1-4)GlcNAc
# Outline: as §1
# [16] = biological target: Fuc(a1-2)[GalNAc(b1-3)]Gal
# Outline: as §1
# Fuc(a1-3)GlcNAc = biological target: Fuc(a1-3)GlcNAc
# Outline: as §1
# [17] = biological target: Fuc(a1-3)[Gal(b1-4)]Glc6S
# Outline: as §1
# [18] = biological target: Fuc(a1-3)[Gal(b1-4)]GlcNAc
# Outline: as §1
# [19] = biological target: Fuc(a1-3)[Gal(b1-4)]GlcNAc(b1-2)Man
# Outline: as §1
# [20] = biological target: Fuc(a1-3)[Gal(b1-4)]GlcNAc(b1-2)Man(a1-3)[Fuc(a1-3)[Gal(b1-4)]GlcNAc(b1-2)Man(a1-6)]Man(b1-4)GlcNAc(b1-4)GlcNAc
# Outline: as §1
# [21] = biological target: Fuc(a1-3)[Gal(b1-4)]GlcNAc(b1-2)Man(a1-3)[Fuc(a1-3)[Gal(b1-4)]GlcNAc(b1-2)Man(a1-6)]Man(b1-4)GlcNAc(b1-4)[Fuc(a1-6)]GlcNAc
# Outline: as §1
# [22] = biological target: Fuc(a1-3)[Gal(b1-4)]GlcNAc(b1-3)Gal(b1-3)[Fuc(a1-4)]GlcNAc
# Outline: as §1
# [23] = biological target: Fuc(a1-3)[Gal(b1-4)]GlcNAc(b1-3)Gal(b1-4)[Fuc(a1-3)]GlcNAc
# Outline: as §1
# [24] = biological target: Fuc(a1-3)[Gal(b1-4)]GlcNAc(b1-3)Gal(b1-4)[Fuc(a1-3)]GlcNAc(b1-3)Gal(b1-4)[Fuc(a1-3)]GlcNAc
# Outline: as §1
# [25] = biological target: Fuc(a1-3)[Gal(b1-4)]GlcNAc(b1-3)GalNAc
# Outline: as §1
# [26] = biological target: Fuc(a1-3)[Gal(b1-4)]GlcNAc(b1-6)GalNAc
# Outline: as §1
# [27] = biological target: Fuc(a1-3)[Gal(b1-4)]GlcNAc(b1-6)[Gal(b1-3)GlcNAc(b1-3)]Gal(b1-4)Glc
# Outline: as §1
# [28] = biological target: Fuc(a1-3)[Gal(b1-4)]GlcNAc6S
# Outline: as §1
# [29] = biological target: Fuc(a1-3)[Gal3S(b1-4)]Glc
# Outline: as §1
# [30] = biological target: Fuc(a1-3)[Gal3S(b1-4)]GlcNAc
# Outline: as §1
# [31] = biological target: Fuc(a1-3)[Gal3S(b1-4)]GlcNAc6S
# Outline: as §1
# [32] = biological target: Fuc(a1-3)[GalNAc(b1-4)]GlcNAc
# Outline: as §1
# [33] = biological target: Fuc(a1-3)[GalNAc(b1-4)]GlcNAc6S
# Outline: as §1
# Fuc(a1-4)GlcNAc = biological target: Fuc(a1-4)GlcNAc
# Outline: as §1
# Fuc(b1-3)GlcNAc = biological target: Fuc(b1-3)GlcNAc
# Outline: as §1
# Gal(a1-2)Gal = biological target: Gal(a1-2)Gal
# Outline: as §1
binder,measurement,setting,value
"Arath Fbox (Arabidopsis thaliana), NP_178341.1 (protein) EFTWGRKRRVKSESSPFDSFPEDCISYIISFTNPRDACVAATVSKTFESTVKSDIIWEKFLPADYESLIPPSRVFSSKKELYFSLCNDPVLFDDDKKSVWLEKASGKRCLMLSAMNLSIIWGDNPQYWQWIPIPESRFEKVAKLRDVCWFEIRGRTNTRVLSPRTRYSAYIVFKGVDKCYGFQNVAIEAAVGVVGQEPSRRLICFSEAIRRGRRNVVKPKQREDGWMEIELGEFFNDGGIMDNDEIEMSALETKQLNRKCGLIIQGIEIRPAKILAAAAASFLEQKLISEEDLNSAVDHHHHHH",glycan array binding signal (z-score),[1],-0.618
same,glycan array binding signal (z-score),[2],-0.626
same,glycan array binding signal (z-score),[3],-0.466
same,glycan array binding signal (z-score),[4],-0.433
same,glycan array binding signal (z-score),[5],-0.212
same,glycan array binding signal (z-score),[6],-0.526
same,glycan array binding signal (z-score),[7],-0.087
same,glycan array binding signal (z-score),[8],-0.64
same,glycan array binding signal (z-score),[9],-0.193
same,glycan array binding signal (z-score),[10],-0.334
same,glycan array binding signal (z-score),[11],-0.551
same,glycan array binding signal (z-score),[12],-0.711
same,glycan array binding signal (z-score),[13],0.178
same,glycan array binding signal (z-score),[14],0.337
same,glycan array binding signal (z-score),[15],-0.487
same,glycan array binding signal (z-score),[16],-0.288
same,glycan array binding signal (z-score),Fuc(a1-3)GlcNAc,0.046
same,glycan array binding signal (z-score),[17],2.06
same,glycan array binding signal (z-score),[18],-0.12
same,glycan array binding signal (z-score),[19],-0.173
same,glycan array binding signal (z-score),[20],1.77
same,glycan array binding signal (z-score),[21],0.433
same,glycan array binding signal (z-score),[22],-0.705
same,glycan array binding signal (z-score),[23],-0.261
same,glycan array binding signal (z-score),[24],0.559
same,glycan array binding signal (z-score),[25],-0.303
same,glycan array binding signal (z-score),[26],0.534
same,glycan array binding signal (z-score),[27],-0.589
same,glycan array binding signal (z-score),[28],-0.353
same,glycan array binding signal (z-score),[29],-0.311
same,glycan array binding signal (z-score),[30],0.068
same,glycan array binding signal (z-score),[31],-0.591
same,glycan array binding signal (z-score),[32],-0.567
same,glycan array binding signal (z-score),[33],-0.504
same,glycan array binding signal (z-score),Fuc(a1-4)GlcNAc,-0.702
same,glycan array binding signal (z-score),Fuc(b1-3)GlcNAc,-0.389
same,glycan array binding signal (z-score),Gal(a1-2)Gal,0.171
